Hit rate of the full screen: of about 310,000 compounds, about 14,000 (4.5%) showed an effect of 50% or more. The effect is printed as a negative number. The list shows a part of the results.
Each molecule was assayed against human ether-à-go-go-related gene (hERG) potassium channel (human, UniProt Q12809) (assay: primary screen, population patch clamp on CHO cells stably expressing hERG).
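Note: peak tail current of the secondary pulse compared with the same well before compound.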

Chain of human ether-à-go-go-related gene (hERG) potassium channel (Q12809 whole entry, looked up): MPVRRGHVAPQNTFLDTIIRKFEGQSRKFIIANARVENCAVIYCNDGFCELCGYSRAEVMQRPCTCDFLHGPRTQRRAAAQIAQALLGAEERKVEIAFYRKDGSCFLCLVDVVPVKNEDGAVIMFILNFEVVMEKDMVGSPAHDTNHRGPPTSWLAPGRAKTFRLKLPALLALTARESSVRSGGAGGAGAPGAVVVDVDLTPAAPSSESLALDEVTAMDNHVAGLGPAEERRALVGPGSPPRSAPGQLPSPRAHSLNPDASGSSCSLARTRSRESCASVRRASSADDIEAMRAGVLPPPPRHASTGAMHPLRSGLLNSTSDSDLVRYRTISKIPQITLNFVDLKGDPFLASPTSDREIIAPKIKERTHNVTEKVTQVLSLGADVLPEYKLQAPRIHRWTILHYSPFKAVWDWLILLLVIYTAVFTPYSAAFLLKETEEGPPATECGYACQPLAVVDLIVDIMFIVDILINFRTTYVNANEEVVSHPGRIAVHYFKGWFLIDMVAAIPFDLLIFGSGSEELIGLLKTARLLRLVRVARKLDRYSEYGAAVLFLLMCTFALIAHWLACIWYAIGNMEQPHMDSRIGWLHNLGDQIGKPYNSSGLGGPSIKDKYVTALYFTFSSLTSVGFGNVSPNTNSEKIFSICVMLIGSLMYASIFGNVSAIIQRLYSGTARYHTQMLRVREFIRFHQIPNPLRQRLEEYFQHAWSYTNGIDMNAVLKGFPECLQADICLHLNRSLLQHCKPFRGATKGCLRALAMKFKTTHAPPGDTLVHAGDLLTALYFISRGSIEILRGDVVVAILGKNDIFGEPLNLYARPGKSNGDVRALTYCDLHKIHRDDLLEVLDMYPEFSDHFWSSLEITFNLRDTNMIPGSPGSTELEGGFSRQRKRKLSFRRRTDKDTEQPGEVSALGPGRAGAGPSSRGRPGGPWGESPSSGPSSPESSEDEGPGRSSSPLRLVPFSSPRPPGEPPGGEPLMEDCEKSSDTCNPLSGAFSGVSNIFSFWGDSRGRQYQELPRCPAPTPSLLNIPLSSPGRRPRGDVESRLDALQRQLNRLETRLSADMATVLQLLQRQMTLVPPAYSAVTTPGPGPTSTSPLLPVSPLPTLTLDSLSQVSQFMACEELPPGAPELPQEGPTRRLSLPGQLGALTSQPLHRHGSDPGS

First: Cc1ccc(C(=O)O)cc1NC(=S)NC(=O)c1ccc(-c2ccccc2)cc1
Second: COC(=O)/C(=N/Nc1ccccc1C)Sc1nnc(C(O)c2ccccc2)n1-c1ccccc1 (stereo not drawn)
The “hERG current change (%, negative = inhibition) at 10uM” value of the first is higher: 28.1% for the first, 13.3% for the second.

Compared with `COc1ccc(CCCC(=O)N/N=C/c2ccccc2OC)cc1`, `CCc1ccc(NC(=O)C/C(C)=N/NC(=O)OCc2ccc(OC)cc2)cc1` is lower in “hERG current change (%, negative = inhibition) at 10uM” value: 6.06% for the first, -38.1% for the second.

Compared with `O=C(Cc1ccc(Cl)c(Cl)c1)NCC1(N2CCOCC2)CCCCC1`, `O=C(Nc1ccccc1C(=O)NCCN1CCOCC1)c1ccco1` is higher in “hERG current change (%, negative = inhibition) at 10uM” value: -24.9% for the first, -10.8% for the second.

First: Cc1ccccc1NC(=O)NCCc1nc2ccccc2[nH]1
Second: Cc1nc(N[C@@H](Cc2ccccc2)C(=O)O)c2oc3ccccc3c2n1
The “hERG current change (%, negative = inhibition) at 10uM” value of the first is lower: -7.81% for the first, 11.6% for the second.

Going from `COc1ccc(S(=O)(=O)N2CCOCC2)cc1NC(=O)COc1ccccc1` to `O=C(Nc1nc(-c2ccc(S(=O)(=O)N3CCCCCC3)cc2)cs1)c1ccccc1`, the “hERG current change (%, negative = inhibition) at 10uM” value rises from -40.5% to -1.54%.

Going from `COc1ccc(-c2c(C(F)(F)F)nn(C)c2NC(C)=O)cc1` to `COc1ccc(OCC(=O)NCc2cccnc2)cc1`, the “hERG current change (%, negative = inhibition) at 10uM” value falls from 17.7% to 8.79%.

Compared with `C[C@H](NC(=O)c1nc[nH]c1C(=O)NCc1ccc(CNC(=O)OC(C)(C)C)cc1)C(=O)OC(C)(C)C`, `COc1ccc(CNC(=O)C(C)c2ccc([N+](=O)[O-])cc2)cc1` (stereo not drawn) is lower in “hERG current change (%, negative = inhibition) at 10uM” value: -15.7% for the first, -21.2% for the second.

First: CCOC(=O)COn1c(=O)c(-c2ccco2)[n+]([O-])c2ccccc21
Second: CCOC(=O)c1c(NCc2ccc3c(c2)OCO3)c2ccccc2[nH]c1=O
The “hERG current change (%, negative = inhibition) at 10uM” value of the first is lower: -29.3% for the first, -10.8% for the second.

First: Cc1cc(CNC(=O)COc2ccc(F)cc2Cl)cc(C)c1O
Second: Cc1ccc(-c2nc(-c3ccc(Cl)cc3)sc2CC(=O)O)c(C)c1
The “hERG current change (%, negative = inhibition) at 10uM” value of the first is lower: -8.21% for the first, 26.5% for the second.

First: COC(=O)C1=C(C)Nc2c(c(=O)n(C)c(=O)n2C)C1c1ccncc1 (stereo not drawn)
Second: COCCOC(=O)C1=C(C)NC(=O)NC1c1ccco1 (stereo not drawn)
The “hERG current change (%, negative = inhibition) at 10uM” value of the first is higher: 31.4% for the first, 2.47% for the second.

Compared with `Cc1cc(C)nc(NNC(=O)c2ccccc2O)n1`, `Cc1ccc(C)c(NC(=O)CN2C(=O)CC(C)S(=O)(=O)c3ccccc32)c1` (stereo not drawn) is lower in “hERG current change (%, negative = inhibition) at 10uM” value: 16.1% for the first, 8.3% for the second.

Going from `COc1ccc(-n2c(SCC(=O)Nc3ccccc3OC)nc(O)c(Cc3ccccc3)c2=O)cc1` to `CCN1CCN(CCCNC(=O)CNC(=O)c2nn(-c3ccc(OC)cc3)c(=O)c3ccccc23)CC1`, the “hERG current change (%, negative = inhibition) at 10uM” value rises from -8.35% to 21.1%.

Going from `CC(C)NS(=O)(=O)c1ccc(NC(=O)CCc2ccccc2)cc1` to `O=C(CN1CCN(S(=O)(=O)c2ccccc2)CC1)Nc1ccnn1C1CCCC1`, the “hERG current change (%, negative = inhibition) at 10uM” value falls from -13.6% to -27.3%.

Going from `CCCCNC(=O)OCCSCCS(=O)(=O)c1ccc(Cl)cc1` to `CC1CC(C)CN(C(=O)COC(=O)Cc2ccc(Cl)cc2)C1` (stereo not drawn), the “hERG current change (%, negative = inhibition) at 10uM” value rises from -6.17% to -1.77%.

First: COC(=O)C1=C(c2ccc(C(C)=O)cc2)C[C@@H]2CC[C@H]1N2C(=O)N1CCCC1
Second: C/C(=N/OC(=O)c1ccc(C)cc1)c1ccc(N2C(=O)C3CCCCC3C2=O)cc1 (stereo not drawn)
The “hERG current change (%, negative = inhibition) at 10uM” value of the first is lower: 0.9% for the first, 16% for the second.

First: Cc1ccc2oc3nc(C)c(C(=O)Nc4cccc(C(F)(F)F)c4)cc3c(=O)c2c1
Second: Cc1cc(S(=O)(=O)Nc2c(NC3CCCCC3)c3ccccc3oc2=O)ccc1F
The “hERG current change (%, negative = inhibition) at 10uM” value of the first is lower: 6.48% for the first, 8.4% for the second.

Compared with `Cc1c(C(=O)c2ccc(N(C)C)cc2)c2ccccn2c1CCC#N`, `CCOc1ccc(CC(=NCCc2ccccc2)C2=C(O)CC(C)(C)CC2=O)cc1OCC` is lower in “hERG current change (%, negative = inhibition) at 10uM” value: -5.52% for the first, -21.3% for the second.

Compared with `CC(C)c1ccc(/C=C2\CC/C(=C\C=N\N(C)C)C2=O)cc1`, `Cc1ccc(/C=C2\CCCC3=C2NC(=S)NC3c2ccc(C)cc2)cc1` (stereo not drawn) is lower in “hERG current change (%, negative = inhibition) at 10uM” value: 7.74% for the first, -18.9% for the second.

First: C=CCNC(=S)NNC(=O)c1ccc(OC(C)C)cc1
Second: CCOc1ccc(C(=O)NC2CCN(CC(=O)NCc3cccs3)CC2)cc1
The “hERG current change (%, negative = inhibition) at 10uM” value of the first is higher: 31.9% for the first, -43.2% for the second.

Compared with `CC1=CC(C)(C)N2C(=O)C3(C(C#N)=C(N)OC4=C3C(=O)CC(C)(C)C4)c3cc(C)cc1c32` (stereo not drawn), `Cc1ccc(C(=O)O)cc1N1C(=O)CCCC1=O` is higher in “hERG current change (%, negative = inhibition) at 10uM” value: 3.59% for the first, 24% for the second.

First: CC(=O)N(NC(N)=O)C(C)CC(=O)C1C(C)C=CCC1(C)C (stereo not drawn)
Second: CC1CCCCC1NC(=O)c1cc(=O)[nH]c2ccccc12 (stereo not drawn)
The “hERG current change (%, negative = inhibition) at 10uM” value of the first is lower: 13.4% for the first, 20.2% for the second.

Going from `COc1cc(NC(=O)CN2C(=O)c3ccccc3S2(=O)=O)cc(OC)c1` to `Nc1ccccc1SCC(=O)Nc1nccs1`, the “hERG current change (%, negative = inhibition) at 10uM” value rises from -7.97% to 23%.

`CCc1ccc2c(c1)C(c1cccs1)=NNC(c1cccnc1)=N2` was tested, and the “hERG current change (%, negative = inhibition) at 10uM” value was -48.6%.

Source: PMC4336329 (PLoS ONE, 2015)
